The campaign covered roughly 310,000 compounds. About 2,200 (0.71%) showed an effect of 50% or more. The effect is printed as a negative number. This is one part of the list.

For this experiment, the target named is human ether-à-go-go-related gene (hERG) potassium channel (human, UniProt Q12809). The experiment is described as follows: primary screen, population patch clamp on CHO cells stably expressing hERG.
Chain of human ether-à-go-go-related gene (hERG) potassium channel (Q12809 whole entry, looked up): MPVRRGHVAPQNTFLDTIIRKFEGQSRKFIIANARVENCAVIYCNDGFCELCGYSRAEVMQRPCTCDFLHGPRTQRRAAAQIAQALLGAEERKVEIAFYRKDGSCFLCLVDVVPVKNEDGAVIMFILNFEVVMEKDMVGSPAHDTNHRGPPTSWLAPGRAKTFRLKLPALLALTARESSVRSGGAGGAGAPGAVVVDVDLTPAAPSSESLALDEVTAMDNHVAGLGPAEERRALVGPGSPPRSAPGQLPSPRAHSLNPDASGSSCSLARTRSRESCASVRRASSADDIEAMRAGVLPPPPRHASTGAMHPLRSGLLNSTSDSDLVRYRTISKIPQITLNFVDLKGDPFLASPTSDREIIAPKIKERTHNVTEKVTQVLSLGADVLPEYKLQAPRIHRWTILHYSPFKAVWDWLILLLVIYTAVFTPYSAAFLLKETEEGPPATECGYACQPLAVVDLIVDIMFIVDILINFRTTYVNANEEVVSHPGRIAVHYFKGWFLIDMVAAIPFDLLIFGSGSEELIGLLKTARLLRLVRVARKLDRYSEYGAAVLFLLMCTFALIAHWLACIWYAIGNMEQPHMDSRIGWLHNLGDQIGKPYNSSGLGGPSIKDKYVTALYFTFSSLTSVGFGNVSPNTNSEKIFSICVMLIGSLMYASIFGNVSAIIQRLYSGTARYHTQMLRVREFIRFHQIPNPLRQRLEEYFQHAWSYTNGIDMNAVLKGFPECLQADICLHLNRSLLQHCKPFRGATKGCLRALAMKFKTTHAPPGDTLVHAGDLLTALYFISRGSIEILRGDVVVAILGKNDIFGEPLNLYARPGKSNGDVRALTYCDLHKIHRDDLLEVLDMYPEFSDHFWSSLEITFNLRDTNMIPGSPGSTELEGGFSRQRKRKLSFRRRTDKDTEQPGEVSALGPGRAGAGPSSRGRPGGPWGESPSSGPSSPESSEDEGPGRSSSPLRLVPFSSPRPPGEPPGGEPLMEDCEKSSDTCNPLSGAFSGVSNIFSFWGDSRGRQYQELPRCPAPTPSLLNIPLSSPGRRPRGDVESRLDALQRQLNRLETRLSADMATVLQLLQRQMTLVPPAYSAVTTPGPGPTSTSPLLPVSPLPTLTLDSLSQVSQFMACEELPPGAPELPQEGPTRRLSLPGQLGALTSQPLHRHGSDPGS
Turning to `O=C(CCNS(=O)(=O)c1cccc2nonc12)NC1CCCc2ccccc21` (stereo not shown), the “hERG current change (%, negative = inhibition) at 1uM” value was determined as 10.2%.

With `O=c1[nH]c(-c2ccccc2)nn1-c1ccc(Br)cc1Br`, the “hERG current change (%, negative = inhibition) at 1uM” value was 11.3%.

Consider `Cc1ccc(Cl)cc1S(=O)(=O)N1CCC(C(=O)NC2CCN(Cc3ccccc3)CC2)CC1`, for which the “hERG current change (%, negative = inhibition) at 1uM” value was -66.1%. Consider `Cc1cc(NC(=O)CN2CCCCC2C)no1.O=C(O)C(=O)O` (stereo not shown), for which the “hERG current change (%, negative = inhibition) at 1uM” value turned out to be 12.5%. `CCOC(=O)C1CCCN(S(=O)(=O)c2cc3[nH]c(=O)c(=O)[nH]c3cc2C)C1` (stereo not shown): the “hERG current change (%, negative = inhibition) at 1uM” value was found to be 11.3%.

In the case of `CC1CCN(c2nc3c(c(=O)[nH]c(=O)n3C)n2Cc2ccccc2)CC1`, the “hERG current change (%, negative = inhibition) at 1uM” value came out at 9.5%. For `Cc1c(NC(=O)C(C)N(c2ccccc2)S(C)(=O)=O)c(=O)n(-c2ccccc2)n1C` (stereo not shown), the “hERG current change (%, negative = inhibition) at 1uM” value stood at 14.9%. In the case of `COCC(=O)N(Cc1cc2cc(OC)ccc2[nH]c1=O)c1ccc(C)cc1`, the “hERG current change (%, negative = inhibition) at 1uM” value was determined as 6.88%. To `O=C(c1ccc(N2CCCCC2)c([N+](=O)[O-])c1)N1CCOCC1` belongs -3.12%; to `CSc1nc2ccc(NS(=O)(=O)c3cccc(Cl)c3Cl)cc2s1`, 6.02%. `Cc1nn(CCC(=O)NNC(=S)Nc2ccc(F)cc2)c(C)c1[N+](=O)[O-]`: the “hERG current change (%, negative = inhibition) at 1uM” value was -5.03%. For the molecule `CCOc1ccc2nc(SCc3ccccc3C#N)sc2c1`, the “hERG current change (%, negative = inhibition) at 1uM” value was determined as 12%. For the molecule `O=C(Nc1ccncc1)c1cccc(S(=O)(=O)N2CCCC2)c1`, the “hERG current change (%, negative = inhibition) at 1uM” value was -3.39%. In the case of `Cc1ccc(NC(=O)C(=O)NCCCN2CCCC2=O)c(C)c1` it was 14.3%; in that of `CCOC(=O)C1C(O)=CC(=O)CC1c1ccccc1` (stereo not shown), 14.3%; in that of `N#Cc1cnc(SCC(=O)N2CCCC2)nc1N`, 20.6%. In the case of `CCCC(=O)Nc1c(C)n[nH]c1C` it was 9.34%; in that of `O=C(CCCCCn1c(=O)[nH]c2ccsc2c1=O)N1CCN(C2CCCCC2)CC1`, -5.15%. Regarding `Cc1c(OCC(=O)N2CCC(C(=O)O)CC2)ccc2c3c(c(=O)oc12)CCCC3`, the “hERG current change (%, negative = inhibition) at 1uM” value is on record as 5.73%.

Turning to `Cn1c(C(=O)NCCCN2CCCCCC2)cc2c(=O)n(C)c3ccccc3c21`, the “hERG current change (%, negative = inhibition) at 1uM” value is given as 0.386%.

As to `COC(=O)C1=C(c2cc3ccccc3s2)C[C@@H]2CC[C@H]1N2C(=O)N1CCC(O)CC1`, the “hERG current change (%, negative = inhibition) at 1uM” value was 8.36%. Regarding `O=C1c2cccnc2C(Nc2ccc(S(=O)(=O)N3CCCCC3)cc2)N1Cc1ccccc1` (stereo not shown), the “hERG current change (%, negative = inhibition) at 1uM” value is recorded as 9.88%. With `COCCN(CCOC)S(=O)(=O)c1ccc(Cl)nc1`, the “hERG current change (%, negative = inhibition) at 1uM” value stood at 5.1%. Consider `Cl.O=C(O)CCc1nc2cc3ccccc3cc2[nH]1`, for which the “hERG current change (%, negative = inhibition) at 1uM” value is listed as 5.42%. In the case of `Cc1ccc(C(=O)NC2CCS(=O)(=O)C2)cc1S(=O)(=O)N1CCCCC1` (stereo not shown) it was 5.69%; in that of `CC(=O)Nc1ccccc1NC(=O)c1ccc(C)c(C)c1`, 10.2%; in that of `CN(C(=O)c1ccc2c(c1)SC1=NS(=O)(=O)CCN12)C(c1ccccc1)c1ccccc1`, 4.6%. With `OCC1(CO)COC2(CCCC2)N1`, the “hERG current change (%, negative = inhibition) at 1uM” value is 5.59%. As to `COCCNC(=O)C(=O)N/N=C/c1ccccc1C(F)(F)F`, the “hERG current change (%, negative = inhibition) at 1uM” value is 10.5%. As for `O=C1c2cccnc2C(=O)N1Cc1ccco1`, the “hERG current change (%, negative = inhibition) at 1uM” value is 3.2%. Turning to `COc1ccc(-c2cc([C@H]3[C@H]4C=CC[C@@H](C)[C@@H]4C(=O)N3Cc3ccccc3)ccc2F)cc1`, the “hERG current change (%, negative = inhibition) at 1uM” value is on record as 18.8%. For `CSc1ncc(CN2CCCC(C(=O)c3sccc3C)C2)cn1` (stereo not shown), the “hERG current change (%, negative = inhibition) at 1uM” value is listed as -19.2%. `Cc1cccc(NC(=O)CN2CCN(C(=O)c3c(C)nn(Cc4ccccc4)c3C)CC2)c1C`: the “hERG current change (%, negative = inhibition) at 1uM” value was determined as 0.184%. `O=C(c1ccc(N2CCCS2(=O)=O)cc1)N1CCN(c2ccc(F)cc2)CC1`: the “hERG current change (%, negative = inhibition) at 1uM” value is given as -5.19%. For `Cc1ccc(-n2nc(C)c(C3(O)C(=O)N(C)c4ccccc43)c2N)cc1` (stereo not shown), the “hERG current change (%, negative = inhibition) at 1uM” value was -15.6%. For the molecule `CCOC(=O)N1CCc2c(sc3c2c(=O)n(Cc2ccccc2)c(=O)n3Cc2ccccc2F)C1`, the “hERG current change (%, negative = inhibition) at 1uM” value is 2.72%. In the case of `C/C(=N\NC(=O)c1ccn(C)n1)c1cccc(NC(=O)c2ccncc2)c1`, the “hERG current change (%, negative = inhibition) at 1uM” value turned out to be 2.32%. Turning to `Cn1c(=O)c2ccccc2n(CC(=O)NCCC2=CCCCC2)c1=O`, the “hERG current change (%, negative = inhibition) at 1uM” value came to 12.4%. Regarding `O=c1[nH]c(=O)n([C@H]2C[C@H](O)[C@@H](CO)O2)cc1F`, the “hERG current change (%, negative = inhibition) at 1uM” value came to 17%. Consider `COc1ccc(CC(=O)Nc2ccc(C)c(S(=O)(=O)N3CCCCCC3)c2)cc1`, for which the “hERG current change (%, negative = inhibition) at 1uM” value is 10.3%.

For `CCCCCCCCCCOC(=O)Cn1c(COc2ccc(Cl)cc2)[n+](C)c2ccccc21.[Cl-]`, the “hERG current change (%, negative = inhibition) at 1uM” value is recorded as -79.1%. As for `C=CCn1c(SCC(=O)Nc2nnc(CC)s2)nnc1-c1ccncc1`, the “hERG current change (%, negative = inhibition) at 1uM” value was 15.7%.

Take `COc1ccc(C(C)=O)cc1COc1ncnc2ccccc12`: the “hERG current change (%, negative = inhibition) at 1uM” value is 9.78%. Consider `CCOc1cccc(CN2CCC(n3nccc3NC(=O)C3CC3)CC2)c1O`, for which the “hERG current change (%, negative = inhibition) at 1uM” value was -42.5%. In the case of `CC(=O)Nc1ccc(SCC(=O)Nc2ccc(Cl)cn2)cc1` it was 17%. Take `Cc1nc2sc(C(N)=O)c(N)c2c(C)c1CC(=O)c1ccccc1`: the “hERG current change (%, negative = inhibition) at 1uM” value is on record as 7.28%. With `COc1ccc(C(CNC(=O)c2ccc(NS(=O)(=O)c3ccc(F)cc3)cc2)N2CCOCC2)cc1` (stereo not shown), the “hERG current change (%, negative = inhibition) at 1uM” value is listed as 13%. For the molecule `Cc1ccc(OCC(=O)N(C)CC(=O)Nc2ccc(F)c(F)c2F)cc1`, the “hERG current change (%, negative = inhibition) at 1uM” value is 14.5%. To `Cc1nc(NC(=O)c2ccccc2)sc1-c1csc(NCc2ccco2)n1` belongs 2.04%; to `Nc1cc(-c2ccc(OC(F)(F)F)cc2)nn1-c1ccc(Cl)c(Cl)c1`, 18.7%. As to `O=S(=O)(c1ccc(Br)s1)N1CCC(Cc2ccccc2)CC1`, the “hERG current change (%, negative = inhibition) at 1uM” value came out at 12.9%. With `CCCCN(C)C(=O)CCCc1c[nH]c2ccccc12`, the “hERG current change (%, negative = inhibition) at 1uM” value was 7.76%. To `Cc1ccc([N+](=O)[O-])cc1NC(=O)c1ccoc1C` belongs 6.4%; to `COc1ccc(C(=O)NN=C2CCCC2)c(OC)c1`, 5.94%. For `Nc1ncnc2c1ncn2C1OC(C(=O)NC2CC2)C(O)C1O` (stereo not shown), the “hERG current change (%, negative = inhibition) at 1uM” value turned out to be 10.2%. `Cc1cc(NC(=O)C2CCCCC2C(=O)O)no1` (stereo not shown): the “hERG current change (%, negative = inhibition) at 1uM” value stood at 10.8%. As to `O=C(c1ccccc1)c1ccc(OCC(O)CN2CCOCC2)cc1` (stereo not shown), the “hERG current change (%, negative = inhibition) at 1uM” value came to 13.4%. `O=C(CN1C(=O)NC2(CCCCC2)C1=O)NCc1ccc2c(c1)OCO2`: the “hERG current change (%, negative = inhibition) at 1uM” value is recorded as 9.85%. In the case of `CCC(=O)N1CCc2cc(S(=O)(=O)NCCC(=O)N3CCc4ccccc4C3)ccc21`, the “hERG current change (%, negative = inhibition) at 1uM” value was -5.34%. Take `CCOc1ccc2[nH]c(=O)c(CN(Cc3ccco3)Cc3nnnn3Cc3ccccc3)cc2c1`: the “hERG current change (%, negative = inhibition) at 1uM” value is listed as 8.75%. In the case of `CCS(=O)(=O)Nc1ccc(C2=NN(C(=O)c3ccco3)C(c3cccs3)C2)cc1` (stereo not shown) it was 6.68%.

Take `Brc1cccc(CNCC2CCCO2)c1` (stereo not shown): the “hERG current change (%, negative = inhibition) at 1uM” value turned out to be 16.8%. Turning to `COc1ccc(CN2CCN(Cc3ccc4ccccc4c3)CC2)cc1OC.O=C(O)C(=O)O`, the “hERG current change (%, negative = inhibition) at 1uM” value is -21.7%. As to `CC(C)(C)NC(=O)c1ccccc1-c1nc(-c2ccccc2Cl)no1`, the “hERG current change (%, negative = inhibition) at 1uM” value is 5.53%. For `COc1ccccc1-n1cc2c([N+](=O)[O-])cc([N+](=O)[O-])cc2n1`, the “hERG current change (%, negative = inhibition) at 1uM” value worked out at 21.6%.

Turning to `NC(=NCCc1c[nH]c2ccccc12)NC(=O)c1ccc(F)cc1`, the “hERG current change (%, negative = inhibition) at 1uM” value is given as 6.71%. With `CCC(c1nnnn1C(C)(C)C)N(Cc1cccs1)Cc1cc2cc(C)c(C)cc2n2nnnc12` (stereo not shown), the “hERG current change (%, negative = inhibition) at 1uM” value worked out at 3.93%.

With `O=C(CCCn1nnnc1CN1CCOCC1)N1CCN(c2ccccc2F)CC1`, the “hERG current change (%, negative = inhibition) at 1uM” value was 10.1%. To `c1ccc(-c2ccc(CN3CCSCC3)cc2)cc1` belongs 10.3%; to `O=C(CSc1nncn1-c1ccccc1)NC1CCCCC1`, 12.3%. With `C/C(Cn1cnc([N+](=O)[O-])n1)=N/NC(=O)COc1ccccc1Cl`, the “hERG current change (%, negative = inhibition) at 1uM” value was 1.07%. `O=C(Nc1cc(Sc2ccccn2)cc([N+](=O)[O-])c1)c1cccc(Cl)c1`: the “hERG current change (%, negative = inhibition) at 1uM” value was 7.66%.

For the molecule `CC(=O)N(\C=C/C=C/C=C1\Sc2ccccc2C1=O)c1ccccc1`, the “hERG current change (%, negative = inhibition) at 1uM” value is -1.56%. For `CCCn1c(=O)c(C(=O)Nc2cc(C)ccn2)c(O)c2ccccc21`, the “hERG current change (%, negative = inhibition) at 1uM” value stood at 18.5%. On to `Cc1cccc(OCC(=O)N2CCN(C(=O)Cc3ccccc3)CC2)c1`, for which the “hERG current change (%, negative = inhibition) at 1uM” value turned out to be 5.35%. As to `COc1cc(/C=N/Nc2nc(C)cc(C)n2)cc(OC)c1OC`, the “hERG current change (%, negative = inhibition) at 1uM” value was found to be 13.5%. To `O=C(Nc1ncc2c(n1)-c1ccccc1CC2)c1ccc(F)cc1` belongs 7.78%; to `CCN(CC)C(=O)Cn1cc(S(=O)(=O)CC(=O)N2CCCCCC2)c2ccccc21`, 10.6%; to `CCn1cnc2cc(NCc3ccc(C)cc3)ccc21`, -16.2%.

Take `CC(C)CCN=CC1=C(O)CC(c2ccccc2)CC1=O` (stereo not shown): the “hERG current change (%, negative = inhibition) at 1uM” value was 13.8%.

Turning to `CCOC(=O)C1CCN(c2c(C(=O)c3ccccc3)cnc3ccc(CC)cc23)CC1`, the “hERG current change (%, negative = inhibition) at 1uM” value is listed as 13.6%. For `O=C1Nc2ccccc2/C1=C/c1ccc([N+](=O)[O-])cc1`, the “hERG current change (%, negative = inhibition) at 1uM” value was -9.62%. To `COc1cccc(NC(=O)COC(=O)c2ccc(F)cc2F)c1` belongs 6.24%; to `Cc1ccc(C(=O)Oc2cc(-c3ccccc3)no2)cc1`, 12.5%; to `CCN(CC)S(=O)(=O)c1cccc(C(=O)OCC(=O)N2CC(=O)Nc3ccccc32)c1`, 7.65%. As to `COc1ccccc1Nc1nc2ccc(C)cc2cc1C#N`, the “hERG current change (%, negative = inhibition) at 1uM” value was 25.9%. Consider `CC(c1cccs1)N(C(=O)Nc1ccccc1)C1CCCCC1` (stereo not shown), for which the “hERG current change (%, negative = inhibition) at 1uM” value worked out at 7.52%. As for `CN(C)C(=O)c1ccc(COc2ccccc2Br)o1`, the “hERG current change (%, negative = inhibition) at 1uM” value turned out to be 11.1%.

The record behind these values is PMC4336329 (PLoS ONE, 2015).
